The whole screen tested about 48,000 compounds, of which about 1,200 (2.5%) were called active. About 2% were inconclusive and are not listed.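 How the source made its calls: active means activation of at least 60% and not above a set upper limit (about 1 call in 100 departs from these limits); inconclusive means activation of 40% to 60%, or above that upper limit; inactive means activation under 40%.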 This is one part of the list.

In this experiment the target is Probable G-protein coupled receptor 32 (Homo sapiens) (UniProt O75388). Nature of the experiment: qHTS for Agonists of Human Resolvin D1 Receptor DRV1. The settings on record: CHO-K1 GPR32 beta-arrestin PathHunter luminescence, 90 min; at 76.9 µM; hits give high values; zero percent set by DMSO-only wells. The method, boiled down: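 Beta-arrestin recruitment read-out: luminescence from complemented beta-Gal in CHO-K1 GPR32 PathHunter cells, measured 1 h after detection reagent at ambient temperature following 90 min compound exposure at 37 °C; DMSO served as basal (EC0) control.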
Sequence of UniProt O75388 (O75388 whole entry, looked up): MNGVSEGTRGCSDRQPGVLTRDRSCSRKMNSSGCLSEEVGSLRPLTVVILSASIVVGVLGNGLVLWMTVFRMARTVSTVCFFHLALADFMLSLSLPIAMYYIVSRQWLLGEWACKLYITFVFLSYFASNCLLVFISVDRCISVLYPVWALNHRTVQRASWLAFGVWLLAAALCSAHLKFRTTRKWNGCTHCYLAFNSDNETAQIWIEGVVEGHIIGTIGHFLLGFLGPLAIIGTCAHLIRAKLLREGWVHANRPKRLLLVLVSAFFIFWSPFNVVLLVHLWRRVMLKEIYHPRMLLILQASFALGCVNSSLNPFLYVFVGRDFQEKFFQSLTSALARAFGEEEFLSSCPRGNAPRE
(In general: Quantitative high-throughput screening tests each substance at several concentrations.)
Consider `O=c1[nH]c2ccccc2n1CCCN1CCN(C(c2ccccc2)c2ccccc2)CC1`, for which the activation is inactive: 31.8%. The figure for `Cc1cccc(CSc2ncccc2C(=O)O)c1` is inactive: 9.2%; for `CCOc1ccccc1NC(=O)Cn1c(=O)n(C(C)C)c(=O)c2oc3ccccc3c21` it is inactive: -22.4%. Turning to `COCCn1c(C)cc(O)c(C(c2ccc(F)cc2)N2CCC(C)CC2)c1=O` (configuration not stated), the activation was inactive: -6.04%. With `COc1ccc(-n2nc3c(N4CCCC(C(=O)NCCc5ccccc5C)C4)nnc(C)c3c2C)cc1` (configuration not stated), the activation was inactive: -6.59%. Take `COc1ccc(-n2c(=O)c3ccc(C(=O)NCc4ccc(C)cc4)cc3n(Cc3ccc(Cl)cc3)c2=O)cc1`: the activation was inactive: -0.14%. For `Cc1ccc(N(CC(=O)Nc2ccc(C)c(Cl)c2)S(=O)(=O)c2cccs2)cc1`, the activation is inactive: 6.55%. As for `NO`, the activation is inactive: 13.6%. `COc1cccc(NC(=O)Cn2c(=O)n(-c3ccccc3)c(=O)c3c2c2cc(OC)ccc2n3C)c1`: the activation was inactive: 3.39%. The same measure for `O=S(=O)(c1ccc(-c2cnc(C3CC3)o2)cc1)N1CCN(c2ccccc2)CC1`: inactive: -30.4%. The figure for `CC1=C(C(=O)OC2CCCC2)C(c2ccccc2C(F)(F)F)CC(=O)N1` (configuration not stated) is active: 95.9%; for `Cc1ccc(OCC(=O)Nc2cccc(C(=O)OCc3cc(=O)n4c(C)csc4n3)c2)cc1` it is inactive: -12.2%; for `CCc1cccc(NC(=O)c2ccc3c(c2)c(C)c(C)n3Cc2ccc(F)cc2)c1` it is inactive: -16.8%.

Regarding `CCOc1ccccc1NC(=O)c1c(NC(=O)Cc2ccc(OC)cc2)sc2c1CCC2`, the activation was inactive: 0.791%.

With `Cc1ccc(CNC(=O)CN2N=C(c3ccccc3)CCC2=O)cc1`, the activation is inactive: -7.77%. The figure for `CC(=O)c1ccc(N2CCN(c3ncnc4c3cnn4-c3cc(Cl)ccc3C)CC2)cc1` is inactive: 27.2%; for `Cc1ccccc1OCC(=O)OCc1cc(=O)n2nc(-c3cccs3)sc2n1` it is inactive: -18.6%; for `COc1ccccc1CNC(=O)c1nnn(CC(=O)Nc2c(C)cccc2C)c1N` it is inactive: -2.25%. For the molecule `Cn1c(C(=O)Nc2ccc(OC(F)(F)F)cc2)cc2c(=O)n3ccccc3nc21`, the activation was inactive: -1.08%. On to `CCOc1ccc(NC(=O)N2CCC(N3CCCCC3)CC2)cc1`, for which the activation is inactive: -1.71%. The figure for `Cc1cc(NC(=O)C2CCCN(S(=O)(=O)c3cccc4nsnc34)C2)ccc1Br` (configuration not stated) is inactive: 14.4%.

Consider `O=C(Nc1cc(Cl)cc(Cl)c1)c1ccc(F)c(S(=O)(=O)N2CCN(c3ccccc3F)CC2)c1`, for which the activation is inactive: -12.3%. The figure for `O=C(c1ccc2c(c1)N(Cc1ccc(Cl)cc1)C(=O)c1ccccc1S2(=O)=O)N1CCN(c2ccccn2)CC1` is inactive: -12.3%; for `Cc1cccc(CSc2nnc3[nH]c(=O)cc(-c4ccccc4)n23)c1` it is inactive: 3.26%; for `COc1cc(-c2nc3ccc(Cl)cn3c2Nc2ccc3c(c2)OCCO3)ccc1O` it is inactive: -19.3%.

For `Cc1ccc(NC(=O)COc2ccc3oc4c(c3c2)CCCC4)cc1C`, the activation is inactive: 8.98%.

As for `Cc1ccc(CN2COc3c(Cl)cc4c(-c5ccccc5)cc(=O)oc4c3C2)cc1`, the activation is inactive: 1.42%. The figure for `O=C(Cn1ncc2c3ccccc3n(Cc3ccc(F)cc3)c2c1=O)NCCCN1CCCCC1` is inactive: -15.4%; for `CCN(CC)CCNC(C(=O)OCCC(C)C)c1ccccc1` (configuration not stated) it is inactive: -3%.

As to `N#Cc1c[nH]n2c(NC3CCCC3)c(-c3ccc(Cl)cc3)nc12`, the activation is inactive: -20.1%.

Take `Cc1ccc(CNc2nc3ccc(C)cc3n3nnnc23)cc1`: the activation is inactive: 13.7%. The figure for `CCc1ccc(NC(=O)C(=O)NCCc2sc3nc(-c4ccc(OC)cc4)nn3c2C)cc1` is inactive: -8.96%. The same measure for `CCOc1ccccc1NC(=O)N1CCC2(CC1)Oc1ccccc1C(=O)N2Cc1ccccc1F`: inactive: -22.8%; for `CC1=C(C(=O)Nc2ccccc2)C(c2ccc(O)cc2)n2nc(SCc3ccccc3)nc2N1` (configuration not stated): inactive: 14.9%; for `Cc1ccc(CCNC(=O)c2c(C)nn(-c3ccc(F)cc3)c2-n2cccc2)cc1`: inactive: 18%. Regarding `O=C(CCS(=O)(=O)c1cccc2nonc12)Nc1ccc(Br)cc1`, the activation was inactive: -17.4%. As to `Cc1ccc(NS(=O)(=O)c2ccc(-c3cc(C)no3)cc2)c(Br)c1`, the activation is inactive: 6.89%. The figure for `O=c1[nH]c(SCc2ccc([N+](=O)[O-])cc2)nc2c1CCCC2` is inactive: 10%; for `Cc1ccccc1NC(=O)CSc1ccc(-c2cccs2)nn1` it is inactive: -4.17%. The same measure for `COc1ccc(Cl)cc1NC(=O)CCn1c(=O)oc2ccccc21`: inactive: 3.27%. For the molecule `COc1ccc(NC(=O)c2cc(C3CC3)nc3c2c(C)nn3-c2ccccc2)cc1OC`, the activation was inactive: -16.7%. The figure for `COc1ccc(NC(=O)Nc2nnc(N(CC(C)C)CC(C)C)s2)c(OC)c1` is inactive: -34.5%. As to `CCN(C(=O)c1cc2c(s1)-c1ccccc1OC2)c1cccc(C(F)(F)F)c1`, the activation was inactive: -16.7%. The figure for `O=C(CSc1nnc(COc2ccccc2)o1)Nc1cc(C(F)(F)F)ccc1Cl` is inactive: -66.6%; for `Cc1ccc(CNC(=O)Cn2cccc2C(=O)c2ccccc2C)cc1` it is inactive: -17.3%. The figure for `Cc1ccc(NC(=O)c2c(NC(=O)C(F)(F)F)sc3c2CCCCC3)cc1` is active: 61.6%; for `O=C(Cn1c(-c2cccs2)cc2ccccc21)NCCCN1CCN(c2ccccc2F)CC1` it is inactive: -0.795%; for `O=C(CSc1nccn1Cc1ccccc1)Nc1ccc2c(c1)OCCO2` it is inactive: -4.87%. The figure for `O=C(NCCCN1CCN(c2ccccc2F)CC1)c1ccc2nc(N3CCCCC3)sc2c1` is inactive: 1.5%; for `O=C(Nc1ccc(C(F)(F)F)cc1)C(Cc1ccccc1)n1cccc1` (configuration not stated) it is inactive: -7.26%. With `CC(=O)Nc1cccc(C(=O)NCc2ccc3c(c2)CCN3C(=O)c2ccc(F)cc2)c1`, the activation is inactive: -27.2%. The figure for `COc1cccc(NS(=O)(=O)c2ccc3[nH]cc(C(=O)N4CCCC4)c(=O)c3c2)c1` is inactive: -3.92%; for `Cc1c(CCNC(=O)C(C)(C)C)sc2nc(-c3ccc(F)cc3)nn12` it is inactive: -8.75%.

As for `CCN(C(=O)C1CCCN(c2ncnc3c2nc2n3CCCCC2)C1)c1cccc(Cl)c1` (configuration not stated), the activation is inactive: -11.1%.

As to `Cc1cc2c(cc3c(SCc4ccccc4Cl)nnc(C)n32)o1`, the activation was inactive: -18.9%.

As to `COc1ccccc1NC(=O)C1=C(C)Nc2nc(SCc3ccccc3)nn2C1c1ccncc1` (configuration not stated), the activation was inactive: 26%. `CC(=O)c1ccc(NC(=O)COCc2cc(-c3ccc(F)cc3)on2)cc1`: the activation is inactive: -1.55%. Regarding `COc1cc(OC)c(N(C)C(=O)c2sc3nc4n(c(=O)c3c2C)CCCCC4)cc1Cl`, the activation was inactive: -8.38%. The figure for `COc1cc(NC(=O)Cn2nc3c(cc2=O)CC(C)CC3)cc(OC)c1OC` (configuration not stated) is inactive: -8.13%; for `Cc1cc(Nc2cc(F)ccc2C)nc(-n2nc(C)cc2C)n1` it is inactive: -27.3%; for `CCn1cc(C(=O)N2CCN(c3ccc(OC)cc3)CC2)c(=O)c2cc(S(=O)(=O)N3CCOCC3)ccc21` it is inactive: -21.2%. The figure for `Cc1c(C(=O)N2CCC(C)CC2)c(S(=O)(=O)Nc2ccc(OC(F)(F)F)cc2)c(C)n1C` is inactive: -15.3%; for `CC(C)N(Cc1ccccc1)C(=O)CN1C(=O)CSc2ccc(S(=O)(=O)N3CCCC3)cc21` it is inactive: -30.7%; for `CN(C)S(=O)(=O)N(CC(=O)NCCSc1ccccc1)c1ccccc1` it is inactive: 1.6%. Take `COc1ccc(OCC(=O)Nc2ccc(-c3nc4cc(C)c(C)cc4o3)cc2)cc1`: the activation is inactive: -5.42%. The figure for `COc1ccc2[nH]cc(CCN=C(NC(=O)c3ccccc3C)Nc3nc(C)cc(C)n3)c2c1` is inactive: 1.85%; for `CCSc1nc2c([nH]c3ccccc32)c(=O)n1-c1ccc(F)cc1` it is active: 78.8%; for `Cc1cc(C)c2c(n1)sc1c(=O)n(-c3ccccc3C(F)(F)F)nnc12` it is inactive: -4.88%. For the molecule `CCc1ccc(CNC(=O)C2CCCN(S(=O)(=O)c3ccc4c(ccn4C)c3)C2)cc1` (configuration not stated), the activation was inactive: 11.1%. In the case of `CCCCOc1ccc(CNC(=O)c2ccc3c(c2)N(C)C(=O)C2CCCCN32)cc1` (configuration not stated), the activation is inactive: 1.74%.

For the molecule `CCC(=O)N1CCc2cc(CNS(=O)(=O)c3cccs3)ccc21`, the activation was inactive: -7.77%. Regarding `CCOC(=O)C(CC)Sc1c(CC)cnc2c1c(=O)n(C)c(=O)n2C` (configuration not stated), the activation is inactive: -18.5%. The figure for `Cc1ccc(OCCSc2nc3ccc(NC(=O)c4ccc(F)cc4)cc3s2)cc1` is inactive: -2.82%. As for `Nc1c2ccccc2nc2ccccc12`, the activation was inactive: -9.15%. Take `Cc1cccc(C(C)C)c1NC(=O)C(NS(=O)(=O)c1cccc2nsnc12)c1ccccc1` (configuration not stated): the activation was inactive: -61.4%.

Turning to `COc1ccc(-c2c(C)c3ccc(O)c(CN4CCCC4)c3oc2=O)cc1OC`, the activation is inactive: -5.21%. The same measure for `Cc1ccc(Cc2cn3cc(-c4ccc(F)cc4)nc3s2)cc1`: inactive: 17.8%; for `COc1cccc(-c2cn3ncsc3n2)c1`: inactive: 1.76%; for `COc1ccc(OCc2nc(-c3ccc(-n4cccc4)cc3)no2)cc1`: active: 117%. The figure for `CN1CCC(=C2c3ccccc3Sc3ccccc32)CC1` is inactive: 8.46%; for `Cc1ccccc1CSc1ccc(-c2cccs2)nn1` it is inactive: -31%. For the molecule `Cc1ccc(NC(=O)Cn2cc(C(=O)C3CC3)c3ccccc32)cc1C`, the activation was inactive: 3.61%. For the molecule `Cc1cc(C)n(-c2nc(C)c(C)c(=O)n2CC(=O)Nc2ccc(OC(F)(F)F)cc2)n1`, the activation was inactive: -10.9%. In the case of `Cc1cccc(NC(=O)c2cc(S(=O)(=O)N3CCCCCC3)cn2C)c1C`, the activation is inactive: -8.48%. As for `Cc1ccc(CNS(=O)(=O)c2cc3c(cc2Cl)NC(=O)CO3)o1`, the activation was inactive: -7.93%. The same measure for `CC1CCC(C(=O)NC(C(=O)OCC(=O)c2ccc(Br)cc2)C(C)C)CC1` (configuration not stated): inactive: 26.5%; for `Cc1ccc(S(=O)(=O)c2cn(CC(=O)Nc3cccc(C)c3)c3cc4c(cc3c2=O)OCO4)cc1`: inactive: -7.31%.

The values above are taken from PubChem BioAssay AID1346428 (National Center for Advancing Translational Sciences (NCATS), 2018).
